Reference: US10299477B2 (priority 2015, dated 2019)

Tests used:
[1] = system: Botrytis cinerea; experiment: Test Example B: Gray mold on tomato; format: in vivo; conditions: for Test B (control value class): gray mold on tomato, Botrytis cinerea, 250 ppm spray
[2] = system: Alternaia brassicicola; experiment: Test Example C: Alternaria sooty spot on cabbage; format: in vivo; conditions: Alternaria sooty spot on cabbage; for Test C (control value class): 250 ppm spray
[3] = system: Blumeria graminis f sp. hordei; experiment: Test Example D: Powdery mildew on barley; format: in vivo; conditions: for Test D (control value class): powdery mildew on barley, 250 ppm spray
[4] = system: Puccinia recondita; experiment: Test Example E: Brown rust on wheat; format: in vivo; conditions: for Test E (control value class): brown rust on wheat, Puccinia recondita, 250 ppm spray
[5] = system: Plasmopara viticola; experiment: Test Example G: Downy mildew on vine; format: in vivo; conditions: 7-10 days after inoculation; for Test G (control value class): downy mildew on vine, Plasmopara viticola, 250 ppm spray
[6] = system: Colletotrichum orbiculare; conditions: in vivo

SMILES	Test H (control value class) [6]	also measured
COc1cc(OC)c(Br)c(-c2ccc(=O)n(C)c2-c2c(F)cccc2Cl)c1 [Compound 165]	–	Test B control value ([1]; Gray mold on tomato): H (H shows more than 50% of control values); Test C control value [2]: H (H shows more than 50% of control values); Test D control value ([3]; Powdery mildew on barley): H (H shows more than 50% of control values); Test E control value ([4]; Brown rust on wheat): H (H shows more than 50% of control values); Test G control value ([5]; Downy mildew on vine, 250 ppm sprayed before inoculation): H (H shows more than 50% of control values); Test H control value [6]: H (key: H shows more than 50% of control values; L shows 50% or less of control values)
CCn1c(-c2c(F)cc(OC)cc2F)c(-c2cc(F)ccc2Cl)ccc1=O [Compound 382]	H (key: H shows more than 50% of control values; L shows 50% or less of control values)	Test B (control value class) [1]: H (H shows more than 50% of control values); Test C (control value class) [2]: H (H shows more than 50% of control values); Test D (control value class) [3]: H (H shows more than 50% of control values); Test E (control value class) [4]: H (H shows more than 50% of control values); Test G (control value class) [5]: L (L shows 50% or less of control values)
CCn1c(-c2c(F)cccc2F)c(-c2cc(Cl)ccc2Cl)cc(Cl)c1=O [Compound 445]	H (key: H shows more than 50% of control values; L shows 50% or less of control values)	Test B (control value class) [1]: H (H shows more than 50% of control values); Test C (control value class) [2]: H (H shows more than 50% of control values); Test D (control value class) [3]: H (H shows more than 50% of control values); Test E (control value class) [4]: H (H shows more than 50% of control values); Test G (control value class) [5]: L (L shows 50% or less of control values)
CCn1c(-c2c(F)cc(F)cc2F)c(-c2cccc(F)c2Cl)cc(C)c1=O [Compound 501]	H (key: H shows more than 50% of control values; L shows 50% or less of control values)	Test B (control value class) [1]: H (H shows more than 50% of control values); Test C (control value class) [2]: H (H shows more than 50% of control values); Test D (control value class) [3]: H (H shows more than 50% of control values); Test E (control value class) [4]: H (H shows more than 50% of control values); Test G (control value class) [5]: H (H shows more than 50% of control values)
CCn1c(-c2c(F)cc(OC)cc2F)c(-c2cc(F)cc(F)c2)ccc1=O [Compound 790]	H (key: H shows more than 50% of control values; L shows 50% or less of control values)	–
CCn1c(-c2c(F)cc(F)cc2F)c(-c2cc(F)cc(F)c2)cc(Cl)c1=O [Compound 791]	H (key: H shows more than 50% of control values; L shows 50% or less of control values)	–
CCn1c(-c2c(F)cc(F)cc2F)c(-c2cc(O)ccc2Cl)cc(Cl)c1=O [Compound 792]	H (key: H shows more than 50% of control values; L shows 50% or less of control values)	–
CCOc1ccc(Cl)c(-c2cc(Cl)c(=O)n(CC)c2-c2c(F)cc(F)cc2F)c1 [Compound 793]	H (key: H shows more than 50% of control values; L shows 50% or less of control values)	–
CCn1c(-c2c(F)cc(F)cc2F)c(-c2cc(OCOC)ccc2Cl)cc(Cl)c1=O [Compound 795]	H (key: H shows more than 50% of control values; L shows 50% or less of control values)	–
CCOc1ccc(Cl)c(-c2cc(Cl)c(=O)n(CC)c2-c2c(F)cc(OC)cc2F)c1 [Compound 796]	H (key: H shows more than 50% of control values; L shows 50% or less of control values)	–
CCn1c(-c2c(F)cc(F)cc2F)c(-c2cc(F)cc(F)c2)cc(Br)c1=O [Compound 797]	H (key: H shows more than 50% of control values; L shows 50% or less of control values)	–
CCn1c(-c2c(F)cc(OC)cc2F)c(-c2cc(F)cc(F)c2)cc(Br)c1=O [Compound 799]	H (key: H shows more than 50% of control values; L shows 50% or less of control values)	–
Cn1c(-c2c(F)cc(F)cc2F)c(-c2cc(F)cc(F)c2)ccc1=O [Compound 800]	H (key: H shows more than 50% of control values; L shows 50% or less of control values)	–
CCn1c(-c2c(F)cccc2F)c(-c2cc(OCC#N)ccc2Cl)cc(C)c1=O [Compound 801]	H (key: H shows more than 50% of control values; L shows 50% or less of control values)	–
CCOc1ccc(Cl)c(-c2cc(C)c(=O)n(CC)c2-c2c(F)cccc2F)c1 [Compound 802]	H (key: H shows more than 50% of control values; L shows 50% or less of control values)	–
COc1cc(F)c(-c2c(-c3cc(F)cc(F)c3)ccc(=O)n2C)c(F)c1 [Compound 803]	H (key: H shows more than 50% of control values; L shows 50% or less of control values)	–
Cn1c(-c2c(F)cc(F)cc2F)c(-c2cc(F)cc(F)c2)cc(Cl)c1=O [Compound 804]	H (key: H shows more than 50% of control values; L shows 50% or less of control values)	–
Cn1c(-c2c(F)cc(F)cc2F)c(-c2cc(F)cc(F)c2)cc(Br)c1=O [Compound 805]	H (key: H shows more than 50% of control values; L shows 50% or less of control values)	–

SMILES	Test H (control value class) [6]	also measured
CCn1c(-c2c(F)cc(F)cc2F)c(-c2cccc(O)c2Cl)cc(Cl)c1=O [Compound 806]	H (key: H shows more than 50% of control values; L shows 50% or less of control values)	–
COc1cc(F)c(-c2c(-c3cc(F)cc(F)c3)cc(Cl)c(=O)n2C)c(F)c1 [Compound 807]	H (key: H shows more than 50% of control values; L shows 50% or less of control values)	–
COc1cc(F)c(-c2c(-c3cc(F)cc(F)c3)cc(Br)c(=O)n2C)c(F)c1 [Compound 808]	H (key: H shows more than 50% of control values; L shows 50% or less of control values)	–
CCOc1cccc(-c2cc(Cl)c(=O)n(CC)c2-c2c(F)cc(F)cc2F)c1Cl [Compound 809]	H (key: H shows more than 50% of control values; L shows 50% or less of control values)	–
CCn1c(-c2c(F)cc(F)cc2F)c(-c2cccc(OCC#N)c2Cl)cc(Cl)c1=O [Compound 810]	H (key: H shows more than 50% of control values; L shows 50% or less of control values)	–
CCn1c(-c2c(F)cc(F)cc2F)c(-c2cccc(OCOC)c2Cl)cc(Cl)c1=O [Compound 811]	H (key: H shows more than 50% of control values; L shows 50% or less of control values)	–
CCn1c(-c2c(F)cc(F)cc2F)c(-c2cc(F)cc(F)c2Br)ccc1=O [Compound 812]	H (key: H shows more than 50% of control values; L shows 50% or less of control values)	–
CCn1c(-c2c(F)cc(F)cc2F)c(-c2cc(F)cc(F)c2Br)cc(Cl)c1=O [Compound 813]	H (key: H shows more than 50% of control values; L shows 50% or less of control values)	–
CCn1c(-c2c(F)cc(F)cc2F)c(-c2cc(F)cc(F)c2Br)cc(Br)c1=O [Compound 814]	H (key: H shows more than 50% of control values; L shows 50% or less of control values)	–
Cn1c(-c2c(F)cc(F)cc2F)c(-c2cc(F)cc(F)c2Br)ccc1=O [Compound 815]	H (key: H shows more than 50% of control values; L shows 50% or less of control values)	–
Cn1c(-c2c(F)cc(F)cc2F)c(-c2cc(F)cc(F)c2Br)cc(Cl)c1=O [Compound 816]	H (key: H shows more than 50% of control values; L shows 50% or less of control values)	–
Cn1c(-c2c(F)cc(F)cc2F)c(-c2cc(F)cc(F)c2Br)cc(Br)c1=O [Compound 817]	H (key: H shows more than 50% of control values; L shows 50% or less of control values)	–
CCn1c(-c2c(F)cc(OC)cc2F)c(-c2cc(F)cc(F)c2Br)ccc1=O [Compound 818]	H (key: H shows more than 50% of control values; L shows 50% or less of control values)	–
CCn1c(-c2c(F)cc(OC)cc2F)c(-c2cc(F)cc(F)c2Br)cc(Cl)c1=O [Compound 819]	H (key: H shows more than 50% of control values; L shows 50% or less of control values)	–
CCn1c(-c2c(F)cc(OC)cc2F)c(-c2cc(F)cc(F)c2Br)cc(Br)c1=O [Compound 820]	H (key: H shows more than 50% of control values; L shows 50% or less of control values)	–
CCn1c(-c2c(F)cc(F)cc2F)c(-c2ccccc2Cl)cc(I)c1=O [Compound 821]	H (key: H shows more than 50% of control values; L shows 50% or less of control values)	–
CCn1c(-c2c(F)cc(OC)cc2F)c(-c2ccccc2Cl)cc(I)c1=O [Compound 822]	H (key: H shows more than 50% of control values; L shows 50% or less of control values)	–
